Assay results reported in the supplement of paper PMC3334620.
Whole data set: some 33,000 sequences, median “E-score (-0.5 to 0.5)” near -0.011, cut for the highest 2% near 0.28. This is one part of the list.

target: T1, Gcr1 (UniProt P07261); assay: PBM E-score (8-mer binding enrichment) (E-score (-0.5 to 0.5)); higher = stronger / more preferred TF binding; most listed sequences are background and not binding sites; conditions: protein concentration: 100 nM; construct: GST-full length
T1 sequence: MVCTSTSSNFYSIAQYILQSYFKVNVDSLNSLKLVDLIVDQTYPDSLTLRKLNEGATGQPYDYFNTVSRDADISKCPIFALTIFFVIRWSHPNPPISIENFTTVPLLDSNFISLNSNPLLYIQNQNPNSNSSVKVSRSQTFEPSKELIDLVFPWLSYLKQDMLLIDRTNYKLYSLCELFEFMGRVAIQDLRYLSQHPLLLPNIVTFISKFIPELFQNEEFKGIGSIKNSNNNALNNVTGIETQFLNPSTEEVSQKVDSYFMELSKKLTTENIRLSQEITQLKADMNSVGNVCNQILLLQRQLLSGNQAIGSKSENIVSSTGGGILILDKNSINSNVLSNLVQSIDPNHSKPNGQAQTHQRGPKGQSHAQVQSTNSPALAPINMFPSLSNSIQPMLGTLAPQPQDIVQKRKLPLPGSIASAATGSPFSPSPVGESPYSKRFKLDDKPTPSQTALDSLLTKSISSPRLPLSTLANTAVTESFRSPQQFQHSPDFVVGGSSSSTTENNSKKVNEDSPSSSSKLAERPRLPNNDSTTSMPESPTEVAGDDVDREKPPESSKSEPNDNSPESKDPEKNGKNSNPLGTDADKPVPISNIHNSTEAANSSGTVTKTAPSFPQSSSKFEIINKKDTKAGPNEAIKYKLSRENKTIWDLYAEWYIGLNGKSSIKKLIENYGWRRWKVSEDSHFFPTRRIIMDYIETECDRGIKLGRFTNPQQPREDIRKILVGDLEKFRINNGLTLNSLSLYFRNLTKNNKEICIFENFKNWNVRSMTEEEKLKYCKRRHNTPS
In short: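 Full-length yeast transcription factors or their DNA-binding domains, GST-tagged and expressed with PURExpress, were applied at about 100-200 nM to universal all-10-mer Agilent arrays. These arrays had been made double-stranded by primer extension on fresh or once-stripped slides. Detection used fluorescent anti-GST, normalisation used masliner, and E-scores for ungapped eight-base words pooled with reverse complements came from the Universal PBM Analysis Suite.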

Sequence	PBM E-score
AACGTGAT	-0.161
CCACTGGA	-0.0825
ATCCTGAG	0.171
CTTAAAGC	-0.0282
AATTACAG	0.283
CCTATCCC	-0.0228
ATGTGCCA	0.0443
AGTCCTAT	0.126
CAGTTCCA	0.0208
CACACTGC	-0.192
ACCCAGTC	-0.261
CGAAGCAA	-0.0863
CGCTCAAG	-0.102
TCCCAACA	0.122
CCTCAACA	-0.163
GTAGAAAC	-0.0106
AAAATTTT	0.16
ATTTGCTA	0.0116
AACCGTAG	0.0128
AGTCAAGA	-0.091
AAGGTGAA	0.0933
CCCGCGAG	-0.132

Sequence	PBM E-score
AAAATCAC	-0.0384
AAAGTTCG	-0.0299
CGAACCAA	-0.0751
GGACTTAA	-0.175
GATGTTAC	-0.0502
GGCATAGA	0.109
AGCCACTC	0.146
TCAGAGGA	-0.118
CGCTGCAG	0.0618
AAGTAGTC	0.119
CAAGGCCG	-0.184
ACGCTGCG	0.086
CTTACCTC	-0.124
ATCCCAGC	0.0877
CGAAAAAA	0.166
GGGATGGA	0.0231
CCGAAAGC	-0.0722
TAACGTGA	-0.128
CATGTTCG	0.0427
GCAGACTA	-0.204
AAGTGGCT	0.237
CGTCCCTC	-0.202

Sequence	PBM E-score
CCGTTTCC	0.0464
TGCCTCCA	-0.143
CAGCGTGC	-0.00684
ATTTTCAC	0.0633
CCAGTCCC	0.0688
ATCAACAT	0.0342
AGGTAAGA	-0.112
CTAGCGAG	-0.272
AATTATAG	0.245
GCGTATGA	-0.107
AACCAATG	-0.0131
AAGCCAAC	-0.0303
GTCTAAAC	-0.0511
CAATTCAG	0.0423
CTACTATC	0.146
ATCAGTAC	-0.0928
CAGACCCG	-0.19
ACGGGCAA	0.107
CCCCATGC	0.00744
AAGAACGT	-0.147
TTCGTCAA	0.0927
TAGCATGA	-0.0978

Sequence	PBM E-score
TATTCTAA	0.12
TTCATCAA	-0.0519
ATTCAATA	0.0589
CGATCGAC	-0.154
GACCAGGA	-0.108
TGGGTGAA	-0.0393
GCGGCTAA	-0.164
ACAGGAAT	0.307
AGGATAAG	-0.00711
CACCTGAG	-0.0795
CGAATATC	0.0967
TCATCAAA	-0.127
TCGTTAAA	0.122
CACATCTC	0.0324
TCGATAGA	-0.224
AAGTGGGG	-0.0252
GAGCAATA	0.0781
AGCACTTC	-0.125
CATTAGTA	0.0179
ACCCATCC	-0.0821
